Test results: PubChem BioAssay AID504706 (National Center for Advancing Translational Sciences (NCATS), 2011)
The whole screen tested about 320,000 compounds, of which about 200 (0.062%) were called active. Inconclusive means that the source gave no clear call. Such entries were picked first, then a sample of the others. Calls come from the whole dose curve; as a rule, active = well fitted activation curve with a large enough effect; inconclusive = small, poorly fitted or top-dose-only effect; inactive = no such curve, though single readings can be large or run the other way. No potency is given beside an inconclusive call; the fits are too rough.

Experiment: qHTS assay for re-activators of p53 using a Luc reporter; note: nearly all actives have a fitted effect of over 45% in size; for activity change, positive = activation: % of control where 0% means no effect
Settings: H1299 p53-A138V BP100-luciferase reporter, luminescence, 24 h; series mostly up to 92.2 µM; activity change, positive = activation: at the top concentration
Outline: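 H1299 (p53-null), stable ts p53-A138V + BP100-Luc; 1000 cells/well, Opti-MEM/10% FBS; cpd 4 pt, 1:5; 24 h, 37 deg C, 5% CO2; detection reagent 10 min RT; luminescence.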
Potency is the fitted concentration of half-maximal effect; tags give direction and shape of the fitted curve.

| SMILES | Potency | activity change, positive = activation |
| --- | --- | --- |
| COc1ccc(-c2n[nH]c(=S)n2-c2ccccc2C)cc1 | inconclusive [activator, single point] | – |
| O=c1cc(-c2ccc(O)cc2)oc2c1ccc1ccccc12 | inconclusive [activator, full curve, poor fit] | – |
| Nc1nonc1-n1nnc(C(=O)N/N=C/c2ccc(OCc3ccccc3)cc2)c1CN1CCCCC1 | inconclusive [activator, single point] | – |
| CCN1C(=O)N[C@@H](c2ccc(Br)cc2)C(C(=O)OC)=C1C | – | inactive: -5.55% |
| CCc1ccc(C(=O)COC(=O)c2cccs2)cc1 | inconclusive [activator, partial curve, poor fit] | – |
| c1ccc(CCNc2nc3ccccc3s2)cc1 | – | inactive: 16.7% |
| Cc1ccc(NC(=S)NCC2CCCO2)cc1C (stereo unspecified) | – | inactive: 26.2% |
| Cc1ccc(N(CC(=O)NCc2ccccc2)C(=O)CCC(=O)Nc2ccccn2)cc1 | – | inactive: -3.76% |
| O=C(/C=C/c1ccco1)NC(=S)Nc1cccc([N+](=O)[O-])c1 | inconclusive [activator, single point] | – |
| CCC(=O)Nc1ccc2nn(-c3ccc(F)cc3)nc2c1 | inconclusive [activator, partial curve, poor fit] | – |
| COc1ccc(-c2cc(C(F)(F)F)n3ncc(C(=O)NCc4ccco4)c3n2)cc1 | – | inactive: -0.884% |
| Cc1cc(C)n2nc(SCC3COc4ccccc4O3)nc2n1 (stereo unspecified) | inconclusive [activator, partial curve, poor fit] | – |
| O=C(O)C1Nc2c(cccc2C(F)(F)F)C2C=CCC12 (stereo unspecified) | – | inactive: -6.54% |
| C/C(=N/NC(=O)C(O)(c1ccccc1)c1ccccc1)c1ccc([N+](=O)[O-])o1 | – | inactive: 6.15% |
| CC1CCN(CC(=O)N2CCN(c3ccccc3)CC2)CC1 | inconclusive [activator, single point] | – |
| COc1cc(C)ccc1OCc1cc(C(=O)N2CCCCCCC2)no1 | inconclusive [activator, full curve, poor fit] | – |
| O=C(NCCc1ccccc1)c1ccc(Cl)nc1 | inconclusive [activator, partial curve, poor fit] | – |
| Cc1cccc(N2CCN(C(=O)N3CCCCC3)CC2)c1C | – | inactive: -5.61% |
| Cc1ccc(-c2nc(C#N)c(NCc3ccco3)o2)cc1 | inconclusive [activator, full curve] | – |
| CC1CCCN(C(=O)COC(=O)COc2ccc(Cl)cc2)C1 (stereo unspecified) | – | inactive: -8.53% |
| N#C/C(=C/c1ccco1)c1nc2ccccc2s1 | inconclusive [activator, partial curve, poor fit] | – |
| O=Cc1ccc(OCc2ccccn2)cc1 | inconclusive [activator, partial curve, poor fit] | – |
| CCOCCCNC(=O)CN1C(=O)COc2ccc(S(=O)(=O)N3CCCC3)cc21 | – | inactive: 6.66% |
| Cc1ccccc1S(=O)(=O)NC1OC(=O)C(Cl)=C1Cl (stereo unspecified) | inconclusive [activator, single point] | – |

| SMILES | Potency | activity change, positive = activation |
| --- | --- | --- |
| c1ccc(OCc2nc3ccccc3s2)cc1 | inconclusive [activator, partial curve, poor fit] | – |
| C/C(=N/N=C/c1ccccc1O)c1ccccc1O | inconclusive [activator, full curve, poor fit] | – |
| CCc1ccc2[nH]c(=O)c(CN(CCN3CCCC3)C(=O)NC3CCCCC3)cc2c1 | inconclusive [activator, partial curve, poor fit] | – |
| O=C(OCC#CCSc1nc2ccccc2o1)c1ccco1 | inconclusive [activator, partial curve, poor fit] | – |
| CCc1nnc(N/N=C/c2ccccc2Cl)n1N | – | inactive: -9.5% |
| Cn1c(O)c(N=NC(=O)CNC(=O)/C=C/c2ccccc2)c2ccccc21 | – | inactive: -1.89% |
| COC(=O)c1ccc(NC(=O)c2ccc(N(C)S(C)(=O)=O)cc2)cc1 | inconclusive [activator, single point] | – |
| COc1cccc2sc3cc(NCc4ccc(C)o4)ccc3c(=O)c12 | – | inactive: 2.72% |
| O=C(N/C(=C/c1ccccc1)C(=O)N1CCCCCC1)c1ccccc1 | – | inactive: -2.4% |
| C=CCc1c(C)nc(-c2ccccc2)nc1N/N=C/c1ccccc1 | inconclusive [activator, partial curve, poor fit] | – |
| Cn1ccsc1=NC(=O)c1ccc(CS(C)(=O)=O)cc1 | – | inactive: 11.9% |
| COc1ccc(COc2ccccc2C(N)=O)cc1F | inconclusive [activator, single point] | – |
| COc1cc(OC)c(C(=O)Nc2ccc3ccccc3c2)cc1OC | – | inactive: 22.3% |
| CCn1nnnc1SCC(=O)c1ccc(C)cc1C | inconclusive [activator, full curve, poor fit] | – |
| Fc1cccc(-c2nnn3c2nc(Cl)c2ccccc23)c1 | inconclusive [activator, partial curve, poor fit] | – |
| N#CC1=C(N)C2=CCCC[C@H]2[C@H](c2ccc(Br)cc2)C1(C#N)C#N | inconclusive [activator, partial curve, poor fit] | – |
| Oc1ccc(C2=NNC(=NCc3ccc4c(c3)OCO4)SC2)c(O)c1 | inconclusive [activator, full curve, poor fit] | – |
| O=C(Nc1ccccn1)c1cc2ccccc2cc1O | inconclusive [activator, partial curve, poor fit] | – |
| O=C(Cc1c(Cl)cccc1Cl)Nc1ccncc1 | – | inactive: -1.04% |
| Cc1cccc(NC(=O)CCC(=O)N/N=C/c2cc([N+](=O)[O-])ccc2O)c1 | inconclusive [activator, single point] | – |
| CC(=NNC(=O)CCC(=O)Nc1ccccc1Cl)c1ccco1 | inconclusive [activator, single point] | – |
| Nc1ccccc1OCCOc1ccccc1N | inconclusive [activator, partial curve] | – |
| Cc1ccccc1NC(=S)NNC(=O)c1ccoc1C | inconclusive [activator, partial curve, poor fit] | – |
| CC1(C)CC(/C=C/c2ccccc2)=Nc2ccccc2N1 | inconclusive [activator, partial curve, poor fit] | – |

| SMILES | Potency | activity change, positive = activation |
| --- | --- | --- |
| CS(=O)(=O)n1nc(-c2cccnc2)nc1NCc1ccccc1 | – | inactive: 0.632% |
| CC(C)(C)C(=O)/C=C(N)/C=C/c1ccccc1 | inconclusive [activator, partial curve, poor fit] | – |
| COc1ccc2[nH]cc(CCN3C(=O)c4ccc(C(=O)O)cc4C3=O)c2c1 | inconclusive [activator, full curve, poor fit] | – |
| CC(=O)C1=C(C)OC(N)=C(C#N)C1c1ccncc1 (stereo unspecified) | inconclusive [activator, single point] | – |
| Cc1ccsc1/C=C1\CCc2ccccc2C1=O | inconclusive [activator, partial curve, poor fit] | – |
| Cc1ccc(NC(=O)CCc2c(C)nn(-c3ccc(N4CCCCC4)nn3)c2C)cc1C | inconclusive [activator, partial curve, poor fit] | – |
| CCOC(=O)C1(Cc2ccccc2Cl)CCN(C(=O)CCn2ccnc2C)CC1 | inconclusive [activator, single point] | – |
| CCC1CCCCN1C(=O)CSc1nnc(-c2ccco2)o1 (stereo unspecified) | inconclusive [activator, partial curve, poor fit] | – |
| O=[N+]([O-])c1ccc(C23CC4CC(CC(O)(C4)C2)C3)cc1 | inconclusive [activator, partial curve, poor fit] | – |
| O=[N+]([O-])c1ccc(N=Nc2ccc(O)cc2O)cc1 | inconclusive [activator, full curve, poor fit] | – |
| O=C(COC(=O)c1cnccn1)c1ccccc1 | – | inactive: 1.49% |
| Cc1ccc(Cl)cc1N1CCN(C(=O)CNC(=O)c2ccc(Br)o2)CC1 | – | inactive: 27.8% |
| CC1CCN(CCNC(=O)c2ccc(NC(=O)C3CCCO3)cc2)CC1 (stereo unspecified) | inconclusive [activator, single point] | – |
| COc1ccccc1NC(=O)Nc1ccc2c(c1)CCC2 | inconclusive [activator, partial curve, poor fit] | – |
| COc1ccc(/C=N/OCC(=O)Nc2ccc3c(c2)OCO3)c(OC)c1 | – | inactive: -3.38% |
| O=C(COC(=O)CCCc1nc2ccccc2s1)NC(=O)NCc1ccco1 | – | inactive: -2.76% |
| Cc1cc(Cl)ccc1OCCCC(=O)N1CCOCC1 | inconclusive [activator, partial curve, poor fit] | – |
| N#C/C(=C\c1cccs1)Sc1nc2ccccc2s1 | inconclusive [activator, single point] | – |
| O=C(Nc1nc2c(F)cc(F)cc2s1)C1CCN(C(=O)c2ccc(F)cc2)CC1 | inconclusive [activator, partial curve] | – |
| O=C(NC1CCCCC1)c1ccc(-c2ccccc2[N+](=O)[O-])o1 | inconclusive [activator, partial curve, poor fit] | – |
| CSc1nc(N)nc(SCC(=O)C23CC4CC(CC(C4)C2)C3)c1C#N | inconclusive [activator, partial curve, poor fit] | – |
| CCc1c(C)sc(NC(=O)c2cccs2)c1C(N)=O | inconclusive [activator, full curve, poor fit] | – |
| Nc1nc(CCOc2ccc(F)cc2)cs1 | inconclusive [activator, partial curve, poor fit] | – |
